The source of these data is PubChem BioAssay AID214 (DTP/NCI, 2004).

SMILES strings stand for the structures. Inconclusive results are not listed. For part of its entries the source gives two or more results. They are shown here; other results are not. The source may hold further records. Results that share an entry differ, and nothing given here explains why; dose, time, organism, isomer or construct need not be as stated for each record.

The test relates to B6C3F1 mice, colon carcinoma 38 s.c., T/C. The test can be described thus: NCI In Vivo Anticancer Drug Screen. Data for tumor model Colon Carcinoma 38 (subcutaneous) in B6C3F1 mice. The note with it: endpoint: median survival time; dose: 200.0 mg/kg/injection; schedule: Q01DX001 (ip); vehicle: saline; higher = longer survival. Here is the method: The antitumor activity of compounds was measured in mice bearing transplantable tumors. Survival or tumor size were measured and the results are expressed as the measurement made in the treated group (T) divided by the measurement made in the vehicle treated control group (C). The tumor model used in this assay is Colon Carcinoma 38 (subcutaneous) in B6C3F1 mice

`CCN(CC)CCOC(=O)Cc1cccc2c(=O)cc(-c3ccccc3)oc12`: the T/C was 100 % of control and 169 % of control.
